Measured values reported in PubChem BioAssay AID686970 (National Center for Advancing Translational Sciences (NCATS), 2013).
About 6,000 (1.7%) of roughly 360,000 compounds were called active. This list was built around the results that the source calls inconclusive (neither active nor inactive); the mix of calls is not that of the screen. Calls follow the shape of the dose curve; as a rule, active = well fitted cell-killing curve with a large enough effect; inconclusive = small, poorly fitted or top-dose-only effect, or effect the other way; inactive = flat fitted curve, though single readings scatter. Potencies of inconclusive entries are left out as doubtful fits.

assay: qHTS for induction of synthetic lethality in tumor cells producing 2HG: qHTS for the HT-1080-NT fibrosarcoma cell line; conditions: HT-1080-NT fibrosarcoma viability, CellTiter-Glo ATP luminescence, 48 h; activity, negative = less viability: at 46.1 µM (top of the series) unless noted;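 also: NT is the 2HG producing partner of a matched IDH1 knockdown line; nearly all actives have a fitted effect of over 55% in size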;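 as to activity, negative = less viability: 0% = DMSO-treated cells and -100% = media-only wells without cells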
How it was run: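 Viability of the 2HG-overproducing fibrosarcoma line after 48 hours of compound exposure at 37 degrees C was determined by luminescence with CellTiter-Glo, and concentration-effect curves were then fitted and categorized.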
Potency is read from the fitted curve at half-maximal effect; tags tell the direction and shape of the fitted curve.

SMILES | activity, negative = less viability | Potency
O=c1cc(CN2CCN(CCO)CC2)c2cc3c(cc2o1)CCC3 | inactive: 0.902% | 
CC=CCn1c(SCCCc2ccccc2)nc2c1c(=O)[nH]c(=O)n2C |  | inconclusive [cytotoxic, single point]
CCN(CC)c1ccc(NC(=O)CSc2nc(C3CC3)nc3ccccc23)cc1C |  | active: 9.2 µM
COc1ccc(OCC(=O)N2CCCC(CO)(CCOc3ccccc3)C2)cc1 (configuration not stated) | inactive: -0.112% | 
Cc1cc(NC(=O)c2coc(=O)c(Br)c2)ccc1C(C)C |  | inconclusive [cytotoxic, single point]
Cc1ccc(CNCCCn2cnc3c(OCc4ccccc4)ncnc32)o1 | inactive: -7.1% | 
CCCCNc1ccc(C(F)(F)F)cc1S(=O)(=O)NCCc1ccc(F)cc1 |  | inconclusive [cytotoxic, partial curve]
COc1ccc([C@H]2Oc3cc(O)cc(O)c3C(=O)C2[C@@H]2C(=O)c3c(O)cc(O)cc3O[C@@H]2c2ccc(OC)cc2)cc1 (some centres not stated) |  | inconclusive [cytotoxic, single point]
O=C1N=NC(=O)N1c1ccccc1 |  | inconclusive [rising, full curve, poor fit]
O=C(CCl)N1c2ccccc2Sc2ccc3ccccc3c21 |  | active: 18.4 µM
COc1cccc2sc(NC(=O)c3ccc(Br)s3)nc12 |  | inconclusive [cytotoxic, single point]
Cc1nn2c(c1-c1ccc(Cl)cc1)N=C(c1ccco1)CC2c1ccccc1 (configuration not stated) |  | inconclusive [cytotoxic, single point]
CCNC(=O)C1(C)CCCN(Cc2csc(-c3ccc(Cl)cc3)n2)C1 (configuration not stated) |  | active: 0.461 µM
CSc1nncc(-c2ccccc2)n1 |  | inconclusive [rising, single point]
COc1ccc(Cl)cc1-c1cc(C(=O)NC2CCCCC2)[nH]n1 |  | inconclusive [cytotoxic, single point]
CC1=C(C#N)C(c2cn(-c3ccccc3)nc2-c2cccs2)C(C#N)=C(C)N1 |  | inconclusive [cytotoxic, partial curve, poor fit]
CCc1ccc(C(=O)c2cncc(Br)c2)cc1 | inactive: 1.04% | 
Cn1ncc2cc(NC(N)=S)ccc21 | inactive: 3.71% | 
CC(C)CCC(=O)N1CCOC1=O |  | inconclusive [rising, single point]
CCOc1ccc(S(=O)(=O)N2CCC(C(=O)NCCN3CCOCC3)CC2)cc1C | inactive: 6.61% | 
Cc1ccc2c(c1)N=C(c1ccccc1)CC(C(Cl)Cl)=N2 |  | inconclusive [cytotoxic, partial curve]
N#Cc1ccc(CN2CCN(C(=O)CN3C(=O)NC4(CCCC4)C3=O)CC2)cc1 | inactive: -28.2% | 
COc1ccc(NC(=O)CSc2ncccc2C(=O)OC(C)C)cc1OC |  | inconclusive [cytotoxic, partial curve, poor fit]
CN(C)S(=O)(=O)c1ccc2[nH]cc(/C=C/c3nc4ccccc4c(=O)n3-c3ccccc3)c2c1 |  | inconclusive [cytotoxic, full curve]

SMILES | activity, negative = less viability | Potency
C[C@@H]1C[C@H]2[C@@H]3C[C@H](F)C4=CC(=O)C=C[C@]4(C)[C@@]3(F)[C@@H](O)C[C@]2(C)[C@@]1(O)C(=O)CO |  | inconclusive [rising, full curve]
FC(F)(F)c1cccc(NC(=S)NCc2ccc(Cl)cc2)c1 |  | inconclusive [cytotoxic, single point]
O=C1N[C@H](Cc2ccccc2)COC(=O)[C@@H](Cc2ccc(F)cc2)CC/C=C/C[C@H]1CC(=O)N(CCO)Cc1ccccc1 |  | inconclusive [cytotoxic, single point]
O=C(CN(C(=O)c1csnn1)c1cccc(Cl)c1)NCCc1ccccc1 | inactive: 0.751% | 
CCCc1[nH]n(-c2ccc([N+](=O)[O-])cc2)c(=O)c1C=NCCc1c[nH]c2ccccc12 |  | inconclusive [cytotoxic, single point]
COc1ccccc1NS(=O)(=O)c1cc(NC(=O)CCC(=O)c2cccs2)ccc1Cl | inactive: -12.1% | 
C/C(=N\N=C(N)N)c1cc(Cl)ccc1Cl |  | inconclusive [cytotoxic, single point]
Cc1cc2c(cc1C)NC(=O)CC(c1ccccc1)=N2 | inactive: 10.4% | 
CN(C1=NC(=O)C(CC(=O)Nc2ccc(Br)cc2)S1)c1ccc(O)cc1 (configuration not stated) |  | inconclusive [cytotoxic, single point]
COc1ccc(Cl)cc1NC(=O)COC(=O)CCNS(=O)(=O)c1cccs1 | inactive: 8.26% | 
CCc1ccc(C2c3[nH]c4ccccc4c3CCN2C(=O)c2cc(C)nn2C)cc1 (configuration not stated) | inconclusive: -30.7% [cytotoxic] | 
Cc1cc(=O)n2nc(N3CCCC(C(=O)Nc4ccc(C)c(C)c4)C3)sc2n1 (configuration not stated) | inactive: 4.16% | 
[O-][n+]1onc2c1CCc1c-2nn(-c2ccccc2Cl)[n+]1[O-] |  | inconclusive [cytotoxic, single point]
COc1ccccc1-n1cnc(N)c1C(=O)c1ccccc1 |  | inconclusive [cytotoxic, single point]
OC(CNC1CCCc2ccccc21)COc1ccc2ccccc2c1 (configuration not stated) | inactive: -25.2% | 
CC(=O)c1cccc(NC(=O)CSc2nc(C3CC3)nc3ccccc23)c1 |  | inconclusive [cytotoxic, partial curve]
O=C(c1ccccc1)N1N=C(c2ccco2)CC1c1cccs1 (configuration not stated) | inactive: 6.9% | 
COc1ccc(NS(=O)(=O)c2ccc(OC)c(N(C)S(=O)(=O)c3ccc(Cl)cc3)c2)cc1 |  | active: 14.1 µM
Cc1ccc2cc(F)c(F)c(F)c2n1 |  | inconclusive [rising, single point]
O=C(O)c1ccc2c(c1)C(=O)N(c1ccc(OCc3ccccc3)cc1)C2=O | inactive: -4.46% | 
CC1C(=O)N(Cc2cn(CC3CCCCC3)nn2)CCS(=O)(=O)N1Cc1ccc(-c2ccc(Cl)cc2)cc1 (configuration not stated) |  | inconclusive [cytotoxic, partial curve]
c1ccc(CSc2ncnc3c2cnn3-c2ccccc2)cc1 | inactive: 20.4% | 
COc1ccc(C(=O)N/N=C/c2sc3ccccc3c2O)cc1 |  | inconclusive [cytotoxic, partial curve]
